# From the supplement of paper PMC8728848
# The other results are listed elsewhere or left out.
# B1: CvGal1 (Crassostrea virginica), A7Y0I5 (protein)
# chain: MTYQISKISQPFTSYIPNGLHIGKHLLLRGRVSYGTEAFAINLQQNPEPCNGEVAFHFNPRPGEQQCVRNSFDGGSWMDEERDQPHFPFDEGRSFTLRIEVAEEGFRTYVNGKPYVNFSHRLDLGNVHYLYLTEGAEFYDISYQDRYTLPYKSEIPQQMNVGKAVRIRGASQDNDGFSVNFACDPDNENCAFHFNPRPNEGVVVRNANLGGWGDEERDYEAEFPFHPYNYFDAMFICTDDKYLVHVNDKYFTEFNHRGGVDASSFFNIVGNLDIQDVEYFEPLEDDFVKTIPSGLVKGDVLIFRGFMKPGGDTFSINFMNGYSVEDDIAFHLNPRVGEGQVVMNCCMGGAWGDEEREDIPSPLADREPFEVKVVVKKNKFKVYVNGKKCMKFAARGNLEDIKGVNIKGEAYVYEVKLERKLEDSWEYLPGGFRVGGWVVVQAIPKKGSEGFAINFRTGSDEDSDIAFHFNPRLQENCTIRNSCAGGAWGGEERDQPDFPFEKKDTCEIAIQAQPDRFVTYVNGKRYIEFNHRLPLESITCVELTGRADFFEPKFF
# Columns and labels:
# Experiment in all cases: glycan array binding signal (z-score within array); higher = stronger binding
# Conditions in all cases: glycan notation: IUPAC condensed, linker removed
# [1] = target: Man(a1-2)Man(a1-3)[Man(a1-2)Man(a1-6)]Man(a1-6)[Man(a1-2)Man(a1-2)Man(a1-3)]Man(b1-4)GlcNAc(b1-4)GlcNAc
# How it was run: (§1)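 Glycan array data came from 3228 arrays in the Consortium for Functional Glycomics database, and only arrays with an available protein sequence were kept. Glycan names were put into IUPAC-condensed notation, and columns mapping to the same glycan were averaged. The binding signal is a within-array Z-score, averaged across arrays of one protein sequence run at different concentrations or buffers and across linkers. A negative Z-score can be read as non-binding.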
# [2] = target: Man(a1-2)Man(a1-3)[Man(a1-6)]Man(a1-6)[Man(a1-2)Man(a1-3)]Man(b1-4)GlcNAc(b1-4)GlcNAc
# How it was run: as §1
# [3] = target: Man(a1-2)Man(a1-6)[Man(a1-3)]Man(a1-6)[Man(a1-2)Man(a1-2)Man(a1-3)]Man
# How it was run: as §1
# [4] = target: Man(a1-2)Man(a1-6)[Man(a1-3)]Man(a1-6)[Man(a1-2)Man(a1-2)Man(a1-3)]Man(b1-4)GlcNAc(b1-4)GlcNAc
# How it was run: as §1
# Man(a1-3)[Man(a1-6)]Man = target: Man(a1-3)[Man(a1-6)]Man
# How it was run: as §1
# [5] = target: Man(a1-3)[Man(a1-6)]Man(a1-6)[Man(a1-2)Man(a1-3)]Man(b1-4)GlcNAc(b1-4)GlcNAc
# How it was run: as §1
# [6] = target: Man(a1-3)[Man(a1-6)]Man(a1-6)[Man(a1-3)]Man
# How it was run: as §1
# [7] = target: Man(a1-3)[Man(a1-6)]Man(a1-6)[Man(a1-3)]Man(b1-4)GlcNAc(b1-4)GlcNAc
# How it was run: as §1
# [8] = target: Man(a1-3)[Man(a1-6)]Man(b1-4)GlcNAc(b1-4)GlcNAc
# How it was run: as §1
# [9] = target: Man(a1-3)[Man(a1-6)]Man(b1-4)GlcNAc(b1-4)[Fuc(a1-6)]GlcNAc
# How it was run: as §1
# Man(a1-6)Man = target: Man(a1-6)Man
# How it was run: as §1
# Man(b1-4)GlcNAc = target: Man(b1-4)GlcNAc
# How it was run: as §1
# Neu5Ac(a2-3)Gal = target: Neu5Ac(a2-3)Gal
# How it was run: as §1
# [10] = target: Neu5Ac(a2-3)Gal(b1-3)GalNAc
# How it was run: as §1
# [11] = target: Neu5Ac(a2-3)Gal(b1-3)GalNAc(b1-3)Gal(a1-4)Gal(b1-4)Glc
# How it was run: as §1
# [12] = target: Neu5Ac(a2-3)Gal(b1-3)GalNAc(b1-4)[Neu5Ac(a2-3)]Gal(b1-4)Glc
# How it was run: as §1
# [13] = target: Neu5Ac(a2-3)Gal(b1-3)GalNAc(b1-4)[Neu5Ac(a2-8)Neu5Ac(a2-3)]Gal(b1-4)Glc
# How it was run: as §1
# [14] = target: Neu5Ac(a2-3)Gal(b1-3)GalNAc6S
# How it was run: as §1
# [15] = target: Neu5Ac(a2-3)Gal(b1-3)GlcNAc
# How it was run: as §1
# [16] = target: Neu5Ac(a2-3)Gal(b1-3)GlcNAc(b1-2)Man(a1-3)[GlcNAc(b1-4)][Neu5Ac(a2-3)Gal(b1-3)GlcNAc(b1-2)Man(a1-6)]Man(b1-4)GlcNAc(b1-4)GlcNAc
# How it was run: as §1
# [17] = target: Neu5Ac(a2-3)Gal(b1-3)GlcNAc(b1-3)Gal(b1-3)GlcNAc
# How it was run: as §1
# [18] = target: Neu5Ac(a2-3)Gal(b1-3)GlcNAc(b1-3)Gal(b1-4)GlcNAc
# How it was run: as §1
# [19] = target: Neu5Ac(a2-3)Gal(b1-3)GlcNAc(b1-3)GalNAc
# How it was run: as §1
# [20] = target: Neu5Ac(a2-3)Gal(b1-3)GlcNAc(b1-6)GalNAc
# How it was run: as §1
# [21] = target: Neu5Ac(a2-3)Gal(b1-3)GlcNAc6S
# How it was run: as §1
# [22] = target: Neu5Ac(a2-3)Gal(b1-3)[Fuc(a1-4)]GlcNAc
# How it was run: as §1
# [23] = target: Neu5Ac(a2-3)Gal(b1-3)[Fuc(a1-4)]GlcNAc(b1-3)Gal(b1-3)[Fuc(a1-4)]GlcNAc
# How it was run: as §1
# [24] = target: Neu5Ac(a2-3)Gal(b1-3)[Fuc(a1-4)]GlcNAc(b1-3)Gal(b1-4)[Fuc(a1-3)]GlcNAc
# How it was run: as §1
# [25] = target: Neu5Ac(a2-3)Gal(b1-3)[Neu5Ac(a2-3)Gal(b1-4)]GlcNAc
# How it was run: as §1
# [26] = target: Neu5Ac(a2-3)Gal(b1-3)[Neu5Ac(a2-6)]GalNAc
# How it was run: as §1
binder,measurement,setting,value
B1,glycan array binding signal (z-score),[1],-0.279
same,glycan array binding signal (z-score),[2],-0.306
same,glycan array binding signal (z-score),[3],-0.259
same,glycan array binding signal (z-score),[4],-0.268
same,glycan array binding signal (z-score),Man(a1-3)[Man(a1-6)]Man,-0.231
same,glycan array binding signal (z-score),[5],-0.265
same,glycan array binding signal (z-score),[6],-0.256
same,glycan array binding signal (z-score),[7],-0.285
same,glycan array binding signal (z-score),[8],-0.294
same,glycan array binding signal (z-score),[9],-0.251
same,glycan array binding signal (z-score),Man(a1-6)Man,-0.282
same,glycan array binding signal (z-score),Man(b1-4)GlcNAc,-0.291
same,glycan array binding signal (z-score),Neu5Ac(a2-3)Gal,-0.288
same,glycan array binding signal (z-score),[10],-0.265
same,glycan array binding signal (z-score),[11],-0.271
same,glycan array binding signal (z-score),[12],-0.286
same,glycan array binding signal (z-score),[13],-0.228
same,glycan array binding signal (z-score),[14],-0.252
same,glycan array binding signal (z-score),[15],-0.268
same,glycan array binding signal (z-score),[16],-0.277
same,glycan array binding signal (z-score),[17],-0.23
same,glycan array binding signal (z-score),[18],-0.264
same,glycan array binding signal (z-score),[19],-0.268
same,glycan array binding signal (z-score),[20],-0.21
same,glycan array binding signal (z-score),[21],-0.297
same,glycan array binding signal (z-score),[22],-0.29
same,glycan array binding signal (z-score),[23],-0.301
same,glycan array binding signal (z-score),[24],-0.269
same,glycan array binding signal (z-score),[25],-0.253
same,glycan array binding signal (z-score),[26],-0.261
